Here are results for 20 variants from the RNAGym collection of RNA variant scans (doi:10.7554/elife.90254).

B1: LINE1-full (parent)
chain: UACGUAGGUGGUUUUCCCCUGAUAGUGCUAAGGGGGCCUGGAAGUUUGGACUGGGCAGAGCUCAACACAGCGUGGCAAAGUGGCUGUGGCUAGACUGCCUCUCUGGAUUCCUCGUCACUCAGCAGGGCAUCUCUGAGAGAAAUGCC

Read counts are not given, so values of variants with three or more changes are uncertain.

In this series the parent is B1. Description: self-cleavage, relative activity (ratio to wild type); higher = more cleavage; in vitro, sequencing; the parent is a self-cleaving ribozyme.
Take UACGUAGGUGGUCUUCGCCUGAUAGUGCUAAGGGGGCCUGGAAGUUUGGACUGGGCAGAGCUCAACACAGCGUGGCAAAGUGGCUGUGGCUUGACUGCCUCUCUGGAUUCCUCGUCACUCAGCAGGGCAUCUCUGAGAGAAAUGCC [U13C C17G A92U]: the self-cleavage is 0.92.

With UACGUAGGUGGUCUUCCCCUGAUAGUGCUAAAGGGGCCUGGAAGUUUGGACUGGGCAGAGCUCAUCACAGCGUGGCAAAGUGGCUGUGGCUGGACUGCCUCUCUGGAUUCCUCGUCACUCAGCUGGGCACCUCUGGGAGAAAUGCC [U13C G32A A65U A92G A124U U130C A136G], the self-cleavage amounted to 0.

As for UACGUAGGUGGUCUUCCCCUGAUAGUGCUAAGGGGGGCUGGAAGUUUGGACUGGGCAGAGCUCAACACAGCGUGGCAAAGUGGCUGUGGCUAGACUGCCUCUCUGGAUUCCUCGUCACUCAGCAGGGCAUCUCUGAGAGAAAUGCU [U13C C37G C146U], the self-cleavage came out at 0.82.

As for UACGUAGGUGGUCUUCCCCUGAUAGUGCUAAAGGGGCCUGGAAGUUUGGACUGGGCAGAGCUCAACACAGCGUGGCAAAGUGGCUGUGGCUAGACUGCCUCUCUGGAUUCCCCGUCACUCAGCAGGGCAUCUCUGAGAGAAAUGCC [U13C G32A U112C], the self-cleavage amounted to 1.45.

In the case of UACGUAGGUGGUCUUCCCCUGAUAGUGCUAAGGGGGCCUGGAAGUUUGGACUGGGCAGAGCUCAACAUAGCGUGGCAAAGUGGCUGUGGCUAGGCUGCCUCUCUGGAUUCCUCGUCACUCAGCAGGGCAUCUCUGAGAGAAAUGCC [U13C C68U A94G], the self-cleavage was 0.11.

As for UACGUAGGUGGUCUUCCCCUGAUAGUGCUAAGGGGGCCUGGAAGUUUGGACUGGGCAGAGUUCGACACAGCGUGGCAAAGUGGCUGUGGCUAGACUGCCUCUCUGGAUUCCUCGUCACUCAGCAGGGCAUCUCUGAGAGAAAUGCC [U13C C61U A64G], the self-cleavage stood at 0.08.

Turning to UACGUAGGUGGUCUUCCCCUGAUAGUGAUAAGGGGGCCUGGAAGUUUGGACUGGGCAGAGCCCAACACAGCGUGGCAAAGUGGCCGUGGCUAGACUGCCUCUCUGGAUUCCUCGUCACUCAGCAGGGCAUCUCUGAGAGAAAUGCC [U13C C28A U62C U85C], the self-cleavage was 0.12.

For the variant UACGUAGGUGGUCUUCCCCUGAUAGUGCUAAGGGGGCCUGGAAGUUUGGAUUGGGCAGAGCUCAACACAGCGUGGCAAAGUGGCCGUGGCUAGACUGCCUCUCUGGAUUCCUCGUCACUCAGCAGGGCAUCUCUGAGAGAAAUGCC [U13C C51U U85C], the self-cleavage stood at 0.41.

As to UACGUAGGUGGUCUUCCCCUGAUAGUGCUAAGGGGGCCUGGAAGUUUGGACUGGGCAGAGCUCAACACAGCGUGGUAAAGUGGCUGUGGCUAGACUGCCUCUCUGGAUUCCUCGUCACUCAGCAGGGCAUCUCUGAGGGAAAUGCC [U13C C76U A138G], the self-cleavage came out at 1.84.

As for UACGUAGGUGGUCUUCCUCUGAUAGUGCUAAGGGGGCCUGGAAGUUUGGACUGGGCAGAGCUCAACACAGCGUGGCAAAGUGGCCGUGGCUAGGCUGCCUCUCUGGAUUCCUCGUCACUCAGCAGGGCAUCUCUGAGAGAAAUGCC [U13C C18U U85C A94G], the self-cleavage came out at 0.

Take UACGUAGGUGGUCUUCCCCUGAUAGUGCUAAAGGGGCCUGGAAGUUUGGACUGGGCAGAGCUCAACACUGCGUGGCAAAGUGGCUGUGGCUAGACUGCCUCUCUGGAUCCCUCGUCACUCAGCAGAGCAUCUCUGAGAGAAAUGCC [U13C G32A A69U U109C G126A]: the self-cleavage was determined as 0.09.

As for UACGUAGGUGGUCUUCCCCUGAUAGUGCUAAGGGGGACUGGAAGUUUGGACUGGGCAGAGCUCAACACAGCGAGGCGAAGUGGCUGUGGCUAGACUGCCUCUCUGGAUUCCUCGCCACUCAGCAGGGCAUCUCUGAGAGAAUUGCC [U13C C37A U73A A77G U115C A142U], the self-cleavage turned out to be 1.24.

In the case of UACGUAGGUGGUCUUCUCCUGAUAGUGCUAAGGGGGCCAGGAAGUUUGGACUGGGCAGAGCCCAACACAGCGUGGCAAAGUGGCUGCGGCUAGACUGCCCCUCUGGAUUCCUCGUCACUCAGCAGGGCAUCUCUGAGAGAAAUGCC [U13C C17U U39A U62C U87C U100C], the self-cleavage is 0.

For UACGUAGGUGGUCUUCCCCUGAUAGUGCUAAAGGGGCCUGGAAGUUUGGACUGGGCAGGGCUCAACACAGCGUGGCAAAGUGGCUGUGGCUAGACUGCCUCUCUGAAUUCCUCGUCACUCAGCAGGGCAUCUCUGAGAGAAAUGCC [U13C G32A A59G G106A], the self-cleavage amounted to 0.11.

For UACGUAGGUGGUCUUCCCCUGAUAGUACUAAGGGGGCCUGGAAGUUUGGACUGGGCAGAGCUCAACACAGCGUGGCAAAGUGGCUGUGGCUAGACUGCCUCUCUGGGUUCCUCGUCACUCAGCAGGGCAUCUCUGAGAGAAAUGCC [U13C G27A A107G], the self-cleavage was found to be 1.88.

In the case of UACGUAGGUGGUCUUCCCCUGAUAGUGCUAAGGGGGCCUGGAAGUUUGGACUGGGCAGAGCUCAACACAGCGUGGCAAAGUGGCUGUGGCUAGACUGCCUCUCUGGAUUCCUCGUCACUCAGCAGGGCUUCUCUGAGAGAAGUGCC [U13C A129U A142G], the self-cleavage is 0.58.

UACGUAGGUGGUCUUCCCCUGAUAGUGCUAAGGGGGCGUGGAAGUUUGGACUGGGCAGAGCACAACACAGCGUGGCAAGGUGGCUGUGGCUAGGCUGCCUCUCUGGAUUCCUCGUCACUCAGCAGGGCAUCUCUGAGAGAAAUGCC [U13C C38G U62A A79G A94G]: the self-cleavage came out at 0.17.

On to UACGUAGGUGGUCUUCCCCUGAUAGUGCUAAGGGGGCCUGGAAGUUUGGACUGGGCAGAGCUUAACACAGCGUGGCAAAGUGGCUGUGGCUAGACUGCCUCUCUGGAUCCCUCGUCACUCAGCAGGGCAUCUCUGAGAGAAAUGCC [U13C C63U U109C], for which the self-cleavage was 0.29.

For UACGUAGGUGGUCUUCCCCUGAUAGUGCUAAGGGGGCCUGGAAGUUUGGACUGGGCAGAGCUCAACACAGCGUGGCAAAGUGGCUGUGGCUAGACUGCUUCUCUGGAUUCCUCGUCACUCAGCAGGGCAUCUCUGGGAGAAAUGCC [U13C C99U A136G], the self-cleavage is 0.8.

On to UACGUAGGUGGUCUUCCCCUGAUAGUGCUAAGGGGGCCUGGAAGUUUGGACUGGGCAGAGCUCAACACAGCGUGGCAAAGUGGCUGUGGCUAGACUGCCUCUCUGGAUUCCUCGUCACUCAGAAGGGCUUCUCAGAGAGAAAUGCC [U13C C123A A129U U134A], for which the self-cleavage is 0.81.
